Assay results as given in the supplement of paper PMC3334620.
In all, about 33,000 sequences were measured (“E-score (-0.5 to 0.5)”: median about -0.013, highest 2% from about 0.3 on). Some of the results follow.

Target: T1, Msn1 (UniProt P22148)
T1 sequence: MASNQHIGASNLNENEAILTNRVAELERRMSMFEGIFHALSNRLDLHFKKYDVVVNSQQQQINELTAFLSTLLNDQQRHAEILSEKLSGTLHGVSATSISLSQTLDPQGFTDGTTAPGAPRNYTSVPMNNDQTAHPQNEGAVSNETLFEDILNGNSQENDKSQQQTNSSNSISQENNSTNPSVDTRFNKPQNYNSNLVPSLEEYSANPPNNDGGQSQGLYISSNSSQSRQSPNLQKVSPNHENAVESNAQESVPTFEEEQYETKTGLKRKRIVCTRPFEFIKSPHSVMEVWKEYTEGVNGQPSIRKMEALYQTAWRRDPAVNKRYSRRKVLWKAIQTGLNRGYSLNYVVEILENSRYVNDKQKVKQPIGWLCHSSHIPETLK
Assay: PBM E-score (8-mer binding enrichment) (E-score (-0.5 to 0.5)); higher = stronger / more preferred TF binding; most listed sequences are background and not binding sites
Conditions: protein concentration: 200 nM; construct: GST-full length
Summary of the method: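 Yeast transcription factors carrying a GST tag, as full-length proteins or DNA-binding domains, were produced by PURExpress in vitro transcription/translation. About 100-200 nM protein was applied to universal all-10-mer Agilent arrays, double-stranded by primer extension on fresh or once-stripped slides. Bound protein was detected with fluorescent anti-GST, and scans were normalised with masliner. The Universal PBM Analysis Suite gave each ungapped eight-base word, pooled with its reverse complement, an E-score, a modified Wilcoxon-Mann-Whitney statistic.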

| Sequence | PBM E-score |
| --- | --- |
| ATCAATGG | -0.191 |
| CGTCATGC | -0.176 |
| CGAGATGC | 0.0614 |
| ATCCTTGA | -0.0979 |
| AATTTCCG | 0.19 |
| ATATCAGG | 0.0389 |
| GGGACCCA | -0.139 |
| ACCCTCAA | -0.169 |
| ATTTCAAA | 0.2 |
| GGTGGGAA | -0.00011 |
| CCTCCGCC | -0.221 |
| AATAGCTG | -0.128 |
| CACGCGCA | -0.113 |
| CAACTCGA | -0.045 |
| AGTAGGCG | -0.0529 |
| CTATAGTA | 0.0301 |
| ACGACTGA | -0.0194 |
| ATTGTCTC | 0.378 |
| CGCCATGA | 0.0409 |
| TACTGTAA | 0.141 |
| TGAAACCA | -0.0996 |
| AGCCTTAT | -0.0506 |
| GGGATCAA | -0.142 |
| GACGGACA | 0.386 |
| CTCAAGCC | -0.119 |

| Sequence | PBM E-score |
| --- | --- |
| CGGTGGAG | -0.254 |
| GAGAGAGC | -0.221 |
| CGGCCGAA | 0.141 |
| GAATGCGA | -0.0548 |
| AGTAGCTA | -0.0446 |
| CTATCCAG | 0.00503 |
| GTTTCGGA | 0.159 |
| GGTAGCAC | -0.289 |
| AGCATACA | 0.0845 |
| ATTATTTC | 0.146 |
| AGGCCGTG | 0.0755 |
| AAGTAATT | 0.166 |
| CACAACGC | 0.00979 |
| CCTCCCAG | -0.285 |
| GCCGTGGA | -0.212 |
| AGAACAAC | 0.0966 |
| CGACACTA | 0.142 |
| CATTTATA | 0.152 |
| CTGGTTCA | -0.0582 |
| AAGCCCTT | -0.186 |
| AGGGGACG | -0.0829 |
| CATACCCA | 0.0872 |
| AATAAGTA | 0.0687 |
| AGATTTGA | 0.0853 |
| GCGCCCTA | -0.259 |

| Sequence | PBM E-score |
| --- | --- |
| AGTCCAAC | -0.0244 |
| GGGGTTCA | -0.0583 |
| ATCTTTCA | 0.101 |
| AGTCTTGC | -0.0197 |
| AAAAAGTG | -0.0627 |
| ACAAGCAC | 0.0568 |
| GTGTACGA | 0.00375 |
| GCCCAGAC | -0.205 |
| ATAGTGAT | 0.0639 |
| CCTGAAAA | -0.0401 |
| CCGGTCGC | -0.132 |
| ACTCTTAC | 0.158 |
| CGGTCCGA | 0.033 |
| AAGTGTAG | 0.0489 |
| AATAGGAG | -0.243 |
| GACGCAGC | 0.0704 |
| TAGAAAGA | -0.0909 |
| AGAAGCGC | 0.0875 |
| AATTGAAG | -0.0362 |
| ACTAGGAG | -0.201 |
| AGTTAGGG | -0.123 |
| CCCGTTCC | -0.229 |
| AAACTTAA | 0.205 |
| ATTACGAC | 0.186 |
| GAGTCCCA | 0.103 |

| Sequence | PBM E-score |
| --- | --- |
| CCATTAGA | -0.188 |
| ATCTAATG | -0.014 |
| CACAAACA | 0.138 |
| CTACATTA | 0.00564 |
| AGAACACC | 0.0348 |
| ACACAAGA | 0.217 |
| GAGATTCC | -0.043 |
| AATCTTCC | -0.111 |
| ATGTTAGG | 0.0629 |
| AGAAGTCT | 0.0496 |
| CCGGACGA | 0.199 |
| CCTTCAGA | -0.0625 |
| CACACGCG | 0.0769 |
| CTCGAATC | -0.213 |
| CCCGGGCA | -0.0206 |
| AGACCGGG | 0.0102 |
| ACGCAAGG | -0.0432 |
| AGCGCTAG | -0.102 |
| CTACCTCA | -0.257 |
| CATGTCCG | 0.436 |
| CAGTAGGA | 0.0016 |
| AGGGTTGA | -0.108 |
| AAATCCTT | -0.124 |
| CACCGGTC | -0.221 |
| TACCGGCA | 0.00495 |

| Sequence | PBM E-score |
| --- | --- |
| ACCGACTG | -0.0882 |
| AACAAAAC | 0.199 |
| ATAACAGA | 0.113 |
| GAATCGGA | 0.161 |
| CTAGTCCA | 0.139 |
| CCCGACCG | -0.19 |
| CGGTCTCC | -0.262 |
| ACGATACG | -0.0335 |
| CGAAGGGA | -0.0442 |
| GGCAACGA | 0.126 |
| CAAAGTGA | 0.108 |
| CAACCCCA | -0.0389 |
| CAGACACC | -0.0175 |
| AGTTTGAT | 0.232 |
| GACACTTA | 0.0257 |
| GCTGCAGA | 0.0331 |
| AAACACTT | 0.0611 |
| ATGTCAAA | 0.323 |
| AACGCGAG | 0.00199 |
| TAGGATCA | -0.0325 |
| ACACGCAA | -0.065 |
| GCAACCCA | -0.0206 |
| GCCCCGGA | -0.147 |
| AGTGATCA | -0.0629 |
| AGACGTAT | -0.00259 |

| Sequence | PBM E-score |
| --- | --- |
| CCAAACCA | -0.0345 |
| GGCGCACC | -0.23 |
| AACTGCAG | -0.1 |
| GTTATTAA | 0.141 |
| ACCCGTAC | -0.0147 |
| ATAAAGGC | -0.0646 |
| AGAACTCA | -0.0366 |
| ACTGACCC | 0.00925 |
| AGTAGTGG | -0.0372 |
| CGGGTCTA | -0.0147 |
| AATTAGAA | -0.0868 |
| ACATGTCA | 0.358 |
| AGGCGGGC | -0.253 |
| CTTGAAGC | -0.0024 |
| GAACTCAC | -0.116 |
| ATAGGCGC | -0.0181 |
| AGGAAAGC | -0.195 |
| ACTAAAGT | -0.0264 |
| CGACAATC | 0.113 |
| CCCCGTCA | -0.154 |
| ATTCCAGC | -0.113 |
| ACCCCTAG | -0.2 |
| ACGTATAA | 0.0167 |
| CGGATGCA | 0.0174 |
| GAATTTGC | -0.0121 |

| Sequence | PBM E-score |
| --- | --- |
| GGTGAGAC | 0.0221 |
| AGTCTTCC | 0.0143 |
| ATGTTCCC | 0.13 |
| AACTGCAA | 0.0375 |
| CATAAAGA | 0.049 |
| CTACGAAA | -0.0344 |
| AGCACCAC | -0.295 |
| AATACCGT | 0.0665 |
| CTCTGACA | 0.205 |
| GCCGTGCC | -0.152 |
| TCAGTACA | 0.319 |
| CCCGGACC | -0.11 |
| CCGCGGAA | 0.0712 |
| CACCGTGC | -0.0464 |
| CCACGTTA | 0.116 |
| ATAGGACA | 0.457 |
| AAATGGGG | -0.211 |
| ACTATCCA | 0.0113 |
| CTAGAGTA | -0.0714 |
| AATTCGTC | 0.185 |
| ATCAATAG | 0.038 |
| CTCCCTCA | -0.223 |
